Assay results reported in publication PMC4336329 (PLoS ONE, 2015).
About 14,000 (4.5%) of roughly 310,000 compounds showed an effect of 50% or more. The effect is printed as a negative number. The list shows a part of the results.

Each molecule was assayed against human ether-à-go-go-related gene (hERG) potassium channel (human, UniProt Q12809) (assay: primary screen, population patch clamp on CHO cells stably expressing hERG).
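Note: peak tail current of the secondary pulse compared with the same well before compound.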

Chain of human ether-à-go-go-related gene (hERG) potassium channel (Q12809 whole entry, looked up): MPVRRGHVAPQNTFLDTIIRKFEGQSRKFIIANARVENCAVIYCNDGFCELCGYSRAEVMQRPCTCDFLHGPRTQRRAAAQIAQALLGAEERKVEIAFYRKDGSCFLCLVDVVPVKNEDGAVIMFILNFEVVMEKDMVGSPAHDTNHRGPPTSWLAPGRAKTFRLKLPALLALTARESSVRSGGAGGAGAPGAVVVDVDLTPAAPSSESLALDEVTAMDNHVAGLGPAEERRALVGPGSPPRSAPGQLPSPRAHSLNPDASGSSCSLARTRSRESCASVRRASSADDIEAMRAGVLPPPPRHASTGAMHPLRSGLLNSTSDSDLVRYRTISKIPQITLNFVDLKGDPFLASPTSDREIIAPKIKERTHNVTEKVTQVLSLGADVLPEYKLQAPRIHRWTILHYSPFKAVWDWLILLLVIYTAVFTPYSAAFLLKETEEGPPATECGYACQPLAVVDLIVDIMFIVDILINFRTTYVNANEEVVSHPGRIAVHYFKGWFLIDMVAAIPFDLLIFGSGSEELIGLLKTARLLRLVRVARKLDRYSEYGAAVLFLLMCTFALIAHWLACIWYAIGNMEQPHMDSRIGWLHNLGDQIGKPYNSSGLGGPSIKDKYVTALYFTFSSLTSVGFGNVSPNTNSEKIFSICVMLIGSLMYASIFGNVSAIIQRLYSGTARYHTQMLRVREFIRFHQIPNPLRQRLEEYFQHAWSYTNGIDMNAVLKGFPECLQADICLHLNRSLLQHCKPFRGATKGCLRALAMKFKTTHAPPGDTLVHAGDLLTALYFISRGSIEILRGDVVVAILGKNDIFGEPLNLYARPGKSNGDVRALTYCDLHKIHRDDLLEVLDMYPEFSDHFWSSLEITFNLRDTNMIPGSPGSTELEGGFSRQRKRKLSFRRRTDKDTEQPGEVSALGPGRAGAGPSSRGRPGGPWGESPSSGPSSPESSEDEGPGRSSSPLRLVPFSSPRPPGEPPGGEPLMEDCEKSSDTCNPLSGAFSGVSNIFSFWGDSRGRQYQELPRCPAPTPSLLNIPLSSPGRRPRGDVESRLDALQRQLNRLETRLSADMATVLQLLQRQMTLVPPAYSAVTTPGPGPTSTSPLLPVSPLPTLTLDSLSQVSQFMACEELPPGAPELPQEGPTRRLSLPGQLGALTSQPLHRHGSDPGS

SMILES	hERG current change (%, negative = inhibition) at 10uM
Cc1ccc(NCC(=O)c2ccc(C)cc2)cc1	4.98%
Cc1ccc(NC(=O)CN2C(=O)c3ccccc3S2(=O)=O)c(C)c1	5.77%
COCC1CCCCN1Cc1cn[nH]c1-c1ccc(OC)cc1OC (centres unmarked)	-25.5%
CN(C)C(=O)/C(=C\c1ccc(-c2cccc([N+](=O)[O-])c2)o1)NC(=O)c1ccccc1	-47.9%
CCOC(=O)c1sc2ncnc(N3CCN(CC)CC3)c2c1C	-63.9%
O=C(O)c1cc(-c2ccc(/C=C3\NC(=O)N(c4ccc(Cl)cc4)C3=O)o2)ccc1Cl	7.5%
CC(C)(CNC(=O)c1ccc(S(=O)(=O)Nc2cccc(C(F)(F)F)c2)cc1)N1CCOCC1	-29.6%
N#Cc1c(SCc2cccc(Cl)c2)sc(C(=O)c2ccccc2)c1N	16.9%
Cc1nc(NC(=O)c2ccc3c(c2)OCO3)ccc1Br	7.84%
COc1ccc(NC(=O)C(c2ccc(OC)cc2)N(C)C(=O)Cc2cccs2)cc1 (centres unmarked)	-16.5%
Cc1oc(C(=O)O)cc1COc1cccc2ccccc12	16.5%
Cc1cc(OC(F)F)ccc1NC(=O)Nc1ccc2c(c1)OCO2	10.5%
CCCCc1nc(NCCNC(=O)c2ccco2)c(C#N)c2c1CSC(C)(C)C2	-28.1%
O=C(O)c1ccc(CNC(=S)Nc2ccccc2)cc1	6.82%
COc1ccc(S(=O)(=O)Nc2c(C)ccc3nsnc23)cc1OC	-22.8%
COc1cc2c(cc1OC)C1=C(C#N)CCC(=NC(=O)c3ccc(Cl)cc3)N1CC2	1.52%
CCN(CC(=O)Nc1cccc(F)c1)Cc1nc2ccccc2c(=O)[nH]1	-31.7%
CN(C)CCCNc1oc(-c2cccc(Cl)c2)nc1C#N	-33.1%
Cc1ccc2[nH]c(=O)c(CNC(C)(C)C)cc2c1	-19.5%
COc1ccc(N(CC(=O)Nc2cccc(C)c2)S(=O)(=O)c2c(C)n[nH]c2C)cc1	-24.9%
CCN(CC)S(=O)(=O)c1ccc(NC(=O)Cc2cccs2)cc1	5.81%
Cc1cc(C)n(-c2nc(SCC(=O)Nc3nccs3)c3c4c(sc3n2)COC(C)(C)C4)n1	0.0558%

SMILES	hERG current change (%, negative = inhibition) at 10uM
O=C(OCc1nnc(-c2ccc([N+](=O)[O-])cc2)o1)C1CC(=O)N(CCc2ccccc2)C1 (centres unmarked)	-61.7%
CCc1noc(C)c1C(=O)Nc1ccc(S(=O)(=O)N2CCC(C)CC2)cc1	-23.3%
CCC(CC)c1nc(C(N)=O)c2[nH]c(=O)n(-c3ccc(OC)c(OC)c3)c2n1	15%
CCOc1cc2[nH]c(=S)n(Cc3ccc(C(=O)NCCCN4CCOCC4)cc3)c(=O)c2cc1OCC	4.48%
COc1cc2[nH]c3c(=O)n(CCN4CCOCC4)cnc3c2cc1OC	-8.21%
O=C1/C(=C\c2ccccc2Cl)SC(=S)N1CCC(=O)N1CCCc2ccccc21	16.2%
COC(=O)C1=NN(C(=O)c2ccc(C)cc2)C(O)(c2ccc(Cl)cc2)C1 (centres unmarked)	-31.2%
CCn1nnnc1SCC(=O)NC1Cc2ccccc2C1	15.2%
Cc1cc(N2CCC(C(N)=O)CC2)nc(-c2ccccc2)n1	-15.2%
O=C1C2C3C=CC(C2C(=O)N1c1nccs1)C1C(=O)N(c2nccs2)C(=O)C31 (centres unmarked)	16.2%
O=C(O)COCC(=O)N1CCN(C(c2ccccc2)c2ccccc2)CC1	-3.19%
CSc1ccccc1OCc1cc(C(=O)N2CCN(c3ccccc3)CC2C)no1 (centres unmarked)	5.83%
CC(=O)NC1(C(F)(F)F)C(=O)Nc2c1c(=O)[nH]c(=O)n2CCc1ccccc1 (centres unmarked)	6.34%
CCCCNC(=S)N(C)/N=C/c1ccccc1F	2.14%
CC(C)CCNC(=O)CN(Cc1ccc2c(c1)OCO2)C(=O)CCC(=O)Nc1ccccn1	-70.7%
N#Cc1c(F)cccc1N1CCN(Cc2ccc3c(c2)OCO3)CC1	-81.3%
CCCCNC(=O)c1onc(CSc2cc(C)cc(C)c2)c1C(=O)NCCCC	5.89%
O=C(O)c1cn[nH]c1-c1cccc([N+](=O)[O-])c1	16.1%
CCC(C)NC(=O)NC1C(NC(=O)NC(C)CC)N(C)C(=O)N1C (centres unmarked)	11.6%
CC(C(O)C12CC3CC(CC(C3)C1)C2)N1CCCCC1.Cl (centres unmarked)	8.83%
COc1ccccc1NC(=S)N1CCn2cccc2C1c1cccnc1 (centres unmarked)	-10.9%
Cc1cc(C)cc(NC(=O)CCn2c(=S)[nH]c3ccccc3c2=O)c1	9.51%
